In all, about 220,000 compounds went through this assay and about 5,700 (2.6%) were called active. The inconclusive results got no clear call from the source; some entries with a clear call stand among them for comparison. Calls follow the shape of the dose curve; as a rule, active = well fitted inhibition curve with a large enough effect; inconclusive = small, poorly fitted or top-dose-only effect; inactive = no such curve, though single readings can be large or run the other way. Potencies of inconclusive entries are doubtful fits and often do not repeat.
What follows are molecules tested against Lysine-specific demethylase 5B (Homo sapiens) (UniProt Q9UGL1) (assay: Primary screen for KDM5B Histone Demethylases FDH-coupled qHTS). Details: FDH-coupled NADH fluorescence (FDH is formaldehyde dehydrogenase); activity change, negative = inhibition: at 57.7 µM (top of the series) unless noted.
Sequence of UniProt Q9UGL1 (Q9UGL1 whole entry, looked up): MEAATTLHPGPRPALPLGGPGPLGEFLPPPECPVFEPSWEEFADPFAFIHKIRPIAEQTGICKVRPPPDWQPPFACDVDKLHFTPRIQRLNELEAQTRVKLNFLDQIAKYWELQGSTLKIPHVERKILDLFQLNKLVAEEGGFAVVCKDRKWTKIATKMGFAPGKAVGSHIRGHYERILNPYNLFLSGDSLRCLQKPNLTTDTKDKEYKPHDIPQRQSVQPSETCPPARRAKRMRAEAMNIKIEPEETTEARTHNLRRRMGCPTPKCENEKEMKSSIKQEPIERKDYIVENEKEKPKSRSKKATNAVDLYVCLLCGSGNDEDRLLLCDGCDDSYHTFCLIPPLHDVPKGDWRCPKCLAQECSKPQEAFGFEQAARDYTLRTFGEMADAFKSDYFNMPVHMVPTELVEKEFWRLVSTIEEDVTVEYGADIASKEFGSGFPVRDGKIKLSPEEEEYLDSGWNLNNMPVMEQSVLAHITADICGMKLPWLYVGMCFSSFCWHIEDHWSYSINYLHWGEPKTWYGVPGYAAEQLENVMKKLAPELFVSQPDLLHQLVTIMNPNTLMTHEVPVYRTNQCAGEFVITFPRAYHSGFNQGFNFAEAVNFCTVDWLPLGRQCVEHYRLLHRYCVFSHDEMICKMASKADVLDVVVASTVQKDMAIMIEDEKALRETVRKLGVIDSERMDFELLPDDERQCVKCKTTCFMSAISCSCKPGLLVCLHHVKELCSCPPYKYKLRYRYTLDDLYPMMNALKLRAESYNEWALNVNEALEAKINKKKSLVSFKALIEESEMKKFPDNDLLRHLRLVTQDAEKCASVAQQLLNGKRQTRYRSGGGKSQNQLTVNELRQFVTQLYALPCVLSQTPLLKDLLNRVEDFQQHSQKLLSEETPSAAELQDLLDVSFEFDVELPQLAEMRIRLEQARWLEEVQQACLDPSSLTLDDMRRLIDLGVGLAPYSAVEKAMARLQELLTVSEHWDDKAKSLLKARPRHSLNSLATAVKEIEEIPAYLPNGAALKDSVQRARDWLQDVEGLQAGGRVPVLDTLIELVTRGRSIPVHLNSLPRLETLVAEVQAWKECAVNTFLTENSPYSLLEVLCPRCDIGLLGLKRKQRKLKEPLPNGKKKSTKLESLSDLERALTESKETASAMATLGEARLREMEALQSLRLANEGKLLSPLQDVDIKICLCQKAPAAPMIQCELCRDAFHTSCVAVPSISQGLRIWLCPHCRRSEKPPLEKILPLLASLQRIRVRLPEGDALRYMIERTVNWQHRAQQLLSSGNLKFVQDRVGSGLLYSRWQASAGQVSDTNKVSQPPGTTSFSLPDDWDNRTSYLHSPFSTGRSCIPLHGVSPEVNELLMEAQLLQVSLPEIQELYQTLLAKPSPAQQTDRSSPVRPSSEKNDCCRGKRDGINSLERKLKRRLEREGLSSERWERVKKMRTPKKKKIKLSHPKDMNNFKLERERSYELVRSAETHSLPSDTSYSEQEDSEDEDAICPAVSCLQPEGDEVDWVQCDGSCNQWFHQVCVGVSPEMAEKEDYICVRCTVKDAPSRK
Outline: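 KDM5BΔAP (200 nM final) in 50 mM HEPES pH 7.5, 0.01% Tween-20 was preincubated 10 min at RT with compound over a concentration range. Substrate mix (H3K4me3 12.5 µM, α-KG 25 µM, Fe²⁺, ascorbate, NAD⁺, FDH) was added, and NADH fluorescence change over 30 min gave dose-response curves.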
Also: nearly all actives have a fitted effect of over 70% in size.
For activity change, negative = inhibition in this document: 0% is about no effect.
Potency is read from the fitted curve at half-maximal effect; tags tell the direction and shape of the fitted curve.

Row | SMILES | Potency | activity change, negative = inhibition
1 | CC(=O)Nc1ccc(-c2csc(N/N=C(/C)c3ccccc3)n2)cc1 | inconclusive: 39.8 µM [inhibitor, single point] | –
2 | COc1ccc(C2CC(=O)c3cc(-c4nc(-c5cccc(Cl)c5)cs4)c(=O)[nH]c3C2)cc1 (configuration not stated) | inconclusive: 1 µM [inhibitor, full curve, poor fit] | –
3 | CSc1oc(-c2cccs2)nc1S(=O)(=O)c1ccc(Br)cc1 | inconclusive: 31.6 µM [inhibitor, partial curve, poor fit] | –
4 | CC(C)OCCCNC(=O)c1cc(Nc2cccc(C(F)(F)F)c2)nc2ccccc12 | inconclusive: 12.6 µM [inhibitor, partial curve, poor fit] | –
5 | O=C(Nc1cccc(F)c1)c1cc(-c2ccco2)nc2ccccc12 | inconclusive: 1.78 µM [inhibitor, full curve, poor fit] | –
6 | CC(C)NS(=O)(=O)c1ccc(C(=O)NCc2ccc(-c3nc4ccccc4s3)o2)cc1 | inconclusive: 12.6 µM [inhibitor, partial curve, poor fit] | –
7 | O=C(NCc1ccccn1)C(=O)Nc1nc(C23CC4CC(CC(C4)C2)C3)cs1 | – | inconclusive: -33.7% [inhibitor]
8 | COc1ccccc1-c1nnc(SCC(=O)N(CC(C)C)CC(C)C)n1N | inconclusive: 39.8 µM [inhibitor, single point] | –
9 | O=C(NCc1ccco1)N1CCOc2ccc(CN3CCc4ccccc4C3)cc2C1 | inconclusive: 11.2 µM [inhibitor, partial curve] | –
10 | NC(CC(=O)O)C(F)(F)F (configuration not stated) | – | inactive: 10.8%
11 | COC(=O)c1cc(C)nc2c1c(=O)n(Cc1nc(-c3cccc(OC)c3OC)oc1C)c(=O)n2C | – | inactive: -3.65%
12 | COc1ccc(CNC(=O)C2CCCN(c3nnc(C)c4c(C)n(-c5ccc(C)cc5)nc34)C2)cc1 (configuration not stated) | inconclusive: 7.08 µM [inhibitor, partial curve, poor fit] | –
13 | COC(=O)Nc1cc(C(=O)OC)cc(C(=O)OC)c1 | – | inactive: -20.9%
14 | COc1ccc(CNC(=O)CSc2nc(-c3ccc4c(c3)OCO4)ccc2C#N)cc1OC | – | inactive: -10.5%
15 | COc1ccc(/C=C/C(=O)c2cc3ccccc3o2)cc1OC | – | inactive: 1.15%
16 | CC(C)NS(=O)(=O)c1cccc(C(=O)N2CCCC2c2ccc3c(c2)OCCO3)c1 (configuration not stated) | – | inactive: 15%
17 | Cc1ccc2c(c1)c1c3n2CCN(C(=O)c2cccc(C(F)(F)F)c2)C3CCC1 (configuration not stated) | inconclusive: 35.5 µM [inhibitor, single point] | –
18 | Cc1ccc(C)c(Cn2c3ccccc3c3cnn(CC(=O)NCCc4ccccc4)c(=O)c32)c1 | – | inconclusive: -34.7% [inhibitor]
19 | COc1ccc(CNC(=O)c2cc3n(n2)CC(c2ccc(Cl)cc2)OC3)c(OC)c1 (configuration not stated) | – | inactive: -29.3%
20 | Nc1nccnc1C(=O)NCc1ccc(C(F)(F)F)cc1 | inconclusive: 25.1 µM [inhibitor, partial curve, poor fit] | –
21 | Clc1ccc(-c2noc(-c3cccnc3NCc3ccco3)n2)cc1 | inconclusive: 3.16 µM [inhibitor, partial curve, poor fit] | –

Row | SMILES | Potency | activity change, negative = inhibition
22 | CCc1nnc(NC(=O)c2cc(-c3ccccn3)nc3ccc(Br)cc23)s1 | inconclusive: 28.2 µM [inhibitor, partial curve, poor fit] | –
23 | Cc1cccc(CNC(=O)CCCN2C(=O)CCn3nc(-c4cccn4C)cc32)c1 | inconclusive: 17.8 µM [inhibitor, partial curve, poor fit] | –
24 | COc1ccc(CN2CCOC[C@H]2c2ncc(-c3ccc(OC)cc3)[nH]2)cc1 | – | inactive: -4.19% [at 86.2 µM]
25 | Cc1oc2c(c1C(=O)NCCN(C)C)CN(CCc1ccccc1)CC2 | inconclusive: 35.5 µM [inhibitor, partial curve, poor fit] | –
26 | CCc1ccccc1NC(=O)c1sc2nc3c(cc2c1N)CN(C)CC3 | inconclusive: 39.8 µM [inhibitor, single point] | –
27 | O=C(Cn1c(=O)nc(-c2ccccc2F)c2cc(Cl)ccc21)NCCCc1ccccc1 | inconclusive: 35.5 µM [inhibitor, partial curve, poor fit] | –
28 | Cc1cccc(NC(=O)c2sc3nc(-c4cc5ccc(O)cc5oc4=O)[nH]c(=O)c3c2C)c1 | inconclusive: 3.98 µM [inhibitor, full curve, poor fit] | –
29 | CCc1noc(C(C)N2CCC(c3nc4ccccc4o3)CC2)n1 (configuration not stated) | – | inactive: -10.6%
30 | O=C1Nc2ccccc2CC12CN(CC1CCOCC1)C2 | inconclusive: 56.2 µM [inhibitor, single point] | –
31 | CC(C)(Oc1nn(CCOc2ccccc2)c2ccccc12)C(=O)NCC1CCOCC1 | inconclusive: 35.5 µM [inhibitor, single point] | –
32 | CCCCS(=O)(=O)N1CCC(n2cc(CN3CCCC3)nn2)CC1 | inconclusive: 15.8 µM [inhibitor, single point] | –
33 | Cc1cccc(C)c1-c1nc(C(=O)N2CCOCC2)n2ccccc12 | active: 79.4 µM | –
34 | NC1(C(=O)N2CCCC(N3CCN(Cc4ccc5c(c4)OCO5)CC3)C2)CC1 (configuration not stated) | inconclusive: 8.91 µM [inhibitor, partial curve, poor fit] | –
35 | COCCCNC(=O)N1CCCCCNC(=O)[C@@H]2CCCC[C@@H]21 | – | inactive: -23.1%
36 | COc1cccc(Cn2c(-c3nonc3NC(C)=O)nc3ccccc32)c1 | inconclusive: 44.7 µM [inhibitor, single point] | –
37 | c1ccc2c(Nc3nc(N4CCOCC4)c4ccccc4n3)cccc2c1 | inconclusive: 35.5 µM [inhibitor, single point] | –
38 | COc1ccc2c(CN3CCN(c4ccccc4O)CC3)cc(=O)oc2c1 | inconclusive: 25.1 µM [inhibitor, single point] | –
39 | CC(C)C(C)NC(=O)COc1nc2ccccc2nc1N(C)C1CCCCC1 (configuration not stated) | inconclusive: 31.6 µM [inhibitor, partial curve, poor fit] | –
40 | COc1cc(NC(=O)c2cc3c(N4CCCC4)nc(C)cn3n2)cc(OC)c1OC | inconclusive: 25.1 µM [inhibitor, partial curve, poor fit] | –
41 | CCNS(=O)(=O)c1cc(C(=O)NC)ccc1OC | – | inactive: -8.71%
42 | CCNC(=O)NC(=O)CN(C)C(C)C(C)(C)C (configuration not stated) | – | inactive: 23.7%

Source: PubChem BioAssay AID1347165 (National Center for Advancing Translational Sciences (NCATS), 2019)
